In PubChem BioAssay AID463173 (ICCB-Longwood Screening Facility, Harvard Medical School, 2010) one finds survival data, which are given here for 88 compounds.

SMILES strings stand for the structures. The whole screen tested about 52,000 compounds, of which about 1,700 (3.3%) were called active. Cut-off read from the data, not from the text of the source: active = survival mostly below about 52% (no sharp cut-off); inactive = mostly above about 56%. Some of the results follow.

The assay deals with Wild type. The assay is described as follows: S. aureus survival, RN4220 and DeltatarO strains – OD600, teichoic acid synthesis inhibitors, primary screen (AID 463173). The conditions noted are these: S. aureus RN4220 wild type/DeltatarO growth, OD600, 18 h, hits give low values, screened at 18.75 µg/mL (by protocol).
With `CCOC(=O)N1N=C(C)CC1(O)c1ccccc1` (stereo not drawn), the survival is inactive: 107%.
For the compound `O=C(COc1ccccc1F)Nc1ccc2nc(SCC(=O)N3CCCC3)sc2c1`, the survival is inactive: 82%.
Turning to `CC(CN1CCOCC1)OC(=O)C1c2ccccc2Oc2ccccc21` (stereo not drawn), the survival is inactive: 103%.
With `COc1cc(NC(=O)Cn2cnc3sc(C)c(S(=O)(=O)N4CCC(C)CC4)c3c2=O)cc(OC)c1OC`, the survival is inactive: 82%.
For the compound `Cc1ccc2c(=O)c(C(=O)c3ccccc3)cn(CC(=O)Nc3ccccc3C)c2n1`, the survival was inactive: 65%.
Then `Cc1cccc(OCC(=O)Nc2nonc2-c2ccc(Br)cc2)c1C`, with inactive: 79%; and `Cc1cccc(C)c1-n1ncc(C(=O)NCc2ccc3c(c2)OCO3)c1C1CCN(C(=O)OC(C)(C)C)CC1`, with inactive: 131%; and `CCc1ccc(OCC(=O)N(Cc2ccc(C)cc2)Cc2ccco2)cc1`, with inactive: 100%.
Regarding `CCOc1ccc(CC(=O)Nc2ccc3c(c2)N(C)C(=O)c2ccccc2S3)cc1OCC`, the survival is inactive: 78%.
To `O=C(COc1ccc(Cl)cc1)Nc1sc2c(c1C(=O)Nc1cccc(Cl)c1)CCCC2` belongs inactive: 148%; to `CC(=O)N1c2ccc(S(=O)(=O)NCC3CCC(C(=O)Nc4ccccc4C)CC3)cc2CC1C` (stereo not drawn), inactive: 111%; to `O=C(Nc1ccc(OC(F)(F)F)cc1)C1CCCN(S(=O)(=O)c2cccc3nonc23)C1` (stereo not drawn), inactive: 83%.
Then `CCCCN(C)CCCNC(=O)c1cc(=O)[nH]c2ccc(S(=O)(=O)N3CCCCC3)cc12`, with inactive: 73%; and `O=C(O)CCCN1C(=O)C(O)=C(C(=O)/C=C/c2ccccc2)C1c1ccccc1` (stereo not drawn), with inactive: 98%.
Regarding `COCCCNC(=O)CN1C(=O)COc2ccc(S(=O)(=O)N3CCCCCC3)cc21`, the survival was inactive: 77%.
With `COc1ccc2c(c1)CCc1sc(NC(=O)c3ccc(Cl)cc3)nc1-2`, the survival is inactive: 44%.
With `CCC1=Nc2cc(C(=O)NC(C)c3ccccc3)ccc2Sc2ccc(Cl)cc21` (stereo not drawn), the survival was inactive: 94%.
On to `Cc1cccc(-n2cc(-c3ccccc3)c3c(NC(C)C)ncnc32)c1`, for which the survival was inactive: 153%.
Then `CC1CCN(S(=O)(=O)c2cn(CC(=O)Nc3ccc(F)c(Cl)c3)c(=O)c3ccccc23)CC1`, with inactive: 69%; and `COc1ccc(-n2c(=O)c3ccccc3n(CC(=O)NCCc3ccccc3)c2=O)c(OC)c1`, with inactive: 72%.
On to `Cc1ccc(NC(=O)CCc2c(C)nc3c(-c4ccccc4)c(C)nn3c2C)c(C)c1`, for which the survival was inactive: 81%.
On to `CN(Cc1ccccc1)C(=O)CCS(=O)(=O)c1cc(Br)cc2c1N(C(=O)C1CC1)CC2`, for which the survival is inactive: 84%.
Consider `O=C(CSc1nccn1-c1cccc(Cl)c1)Nc1cccc(C(F)(F)F)c1`, for which the survival is inactive: 74%.
Then `COc1ccccc1-c1ccc(=O)n(CC(=O)NC(C)(C)C)n1`, with inactive: 103%; and `COC(=O)c1ccccc1NC(=O)CN(c1ccccc1OC)S(C)(=O)=O`, with inactive: 80%.
Take `Cc1ccc(NC(=O)CSc2nc(-c3ccc(F)cc3)nc3c2Cc2c(CO)cnc(C)c2O3)cc1C`: the survival was inactive: 83%.
As to `O=C(COc1ccccc1F)Nc1ccccc1OCc1cc(=O)n2ccccc2n1`, the survival was inactive: 79%.
Then `CCCNC(=O)c1cc(-c2ccccc2)on1`, with inactive: 106%.
To `N#C/C(=C/c1ccc(-c2cc(C(=O)O)ccc2Cl)o1)C(=O)NCCc1c[nH]c2ccccc12` belongs inactive: 105%.
Then `CC(C)c1ccc(NC(=O)c2ccc(F)c(S(=O)(=O)N3CCCC3)c2)cc1`, with inactive: 76%; and `CC1CCN(C(=O)Cn2cc(SCc3ccccc3)c3ccccc32)CC1`, with inactive: 79%.
Consider `CCCc1nnc(N2C(=O)c3oc4ccc(F)cc4c(=O)c3C2c2ccc(C(=O)OC)cc2)s1` (stereo not drawn), for which the survival is inactive: 75%.
To `COc1ccccc1OCC(=O)Nc1nnc2n1CCS2` belongs inactive: 85%; to `O=C(C1CCC1)N1CCc2cc(S(=O)(=O)N3CCN(c4ccccc4)CC3)ccc21`, inactive: 63%.
Then `CC1CCN(c2nnc(-n3cccc3CNc3cccc(F)c3)s2)CC1`, with inactive: 78%; and `O=C(NC1CCCCC1)N(Cc1nc2ccccc2c(=O)[nH]1)C1CCCC1`, with inactive: 107%; and `O=S(=O)(c1ccc(S(=O)(=O)N(Cc2ccccc2)Cc2ccco2)cc1)N1CCCCCC1`, with inactive: 105%.
For the compound `CCOc1ccc(-n2cc(C(=O)Nc3ccccc3OCC)c3cc(OC)c(OC)cc3c2=O)cc1`, the survival was inactive: 70%.
With `COc1cc2ccccc2cc1C(=O)N1CCN(c2nc3c(C)cc(C)cc3s2)CC1`, the survival is inactive: 134%.
Take `CCC(C)NC(=O)Cn1c(=O)n(CC2CCC(C(=O)NC)CC2)c(=O)c2sccc21` (stereo not drawn): the survival is inactive: 70%.
Then `Cc1cccc(NC(=O)C2CCN(S(=O)(=O)c3cccc4nsnc34)CC2)c1`, with inactive: 88%.
To `Cc1ccc2nc(-c3ccccc3O)c(Nc3ccccc3C)n2c1` belongs inactive: 79%; to `CCOC(=O)c1c(NC(=O)CS(=O)(=O)c2ccc(C)cc2)sc2c1CCC(C)C2` (stereo not drawn), inactive: 73%; to `CC1CCN(C(=O)Cn2cc(SCc3cccc(F)c3)c3ccccc32)CC1`, inactive: 80%.
As to `CCc1ccccc1NC(=O)N1CCN(c2nnc(C)c3c(C)n(-c4ccccc4)nc23)CC1`, the survival is inactive: 67%.
Then `NC(=O)CSc1nnc(-c2ccccc2)o1`, with inactive: 103%.
For `COc1ccc(CNC(=O)CCc2cn(Cc3cc(C)ccc3C)c3ccccc23)cc1OC`, the survival is inactive: 69%.
For `O=c1cc(-c2ccccc2)nc(SCc2nc(-c3ccc(C(F)(F)F)cc3)no2)[nH]1`, the survival is inactive: 150%.
Consider `O=C1OC(Nc2ccccc2C(F)(F)F)c2ccccc21` (stereo not drawn), for which the survival is inactive: 108%.
Then `O=C(CCc1ccccc1)NN1C(=O)c2ccccc2C1=O`, with inactive: 107%; and `CC(C)(C)c1ccc(-c2nc3cc(NC(=O)c4cc5ccccc5o4)ccc3o2)cc1`, with inactive: 79%.
With `CCCOc1ccc(-c2nc3ccccc3c(=O)o2)cc1`, the survival was inactive: 70%.
To `COc1ccc(NC(=O)NC2COc3ccccc3C2)c(OC)c1` (stereo not drawn) belongs inactive: 88%; to `Cc1c(C(=O)Nc2nc(-c3ccc(F)cc3)ns2)oc2ccc(Br)cc12`, inactive: 85%; to `CC(C)c1ccc(NC(=O)C2CCN(S(=O)(=O)c3cccc4nsnc34)CC2)cc1`, inactive: 85%.
Regarding `O=C(Cn1ccn(-c2cccc(Cl)c2)c(=O)c1=O)NCCc1ccccc1`, the survival was inactive: 84%.
To `CN(CC(=O)Nc1cccc(Cl)c1)S(=O)(=O)c1ccc2[nH]c3c(c2c1)CCCC3` belongs inactive: 92%.
Then `COc1ccc2c(c1)cc(CNc1ccc(OC)c(OC)c1)c(=O)n2CC(=O)Nc1ccc(F)cc1`, with inactive: 81%; and `COc1ccc(N2CCN(C(=O)CCc3c(C)nc4c(-c5ccccc5)c(C)nn4c3C)CC2)cc1`, with inactive: 71%; and `COc1ccccc1CNC(=O)CCCCn1c(=O)c2ccccc2n(Cc2c(C)cc(C)cc2C)c1=O`, with inactive: 96%.
Take `COc1ccc(CNC(=O)Cn2c(=O)oc3cc(S(=O)(=O)N4CCCCCC4)ccc32)cc1`: the survival is inactive: 66%.
Then `Cc1c(C(=O)Nc2ccc(F)c(F)c2)oc2ccc(S(=O)(=O)N3CCCCC3)cc12`, with inactive: 64%; and `Cc1ccccc1Nc1ccc2noc3c2c1C(=O)c1ccccc1-3`, with inactive: 101%.
Then `COc1ccccc1CNC(=O)CCc1c(C)c2ccc(OC)c(C)c2oc1=O`, with inactive: 80%.
In the case of `O=S(=O)(NCC(c1ccco1)S(=O)(=O)c1ccccc1)c1ccccc1` (stereo not drawn), the survival was inactive: 99%.
Regarding `Cc1cc(C)n2nc(SCC(=O)Nc3cc(Cl)ccc3C)nc2n1`, the survival was inactive: 70%.
To `Cc1cc(N2CCN(C)CC2)nc2ccc(NC(=O)Nc3ccccc3Br)cc12` belongs inactive: 72%; to `CCOc1ccc(S(=O)(=O)N(CC(=O)Nc2cccnc2)c2ccccc2)cc1`, inactive: 125%; to `COc1ccc(CCNC(=O)c2ccc3c(c2)N(Cc2ccc(C)cc2)CCS3)cc1OC`, inactive: 125%.
Take `COCCNC(=S)N1CCN(c2ccc(S(=O)(=O)N3CCCC3)cc2)CC1`: the survival was inactive: 99%.
As for `CC(C)N(C(=O)CSc1nnnn1C1CCCC1)C(C)C`, the survival is inactive: 100%.
In the case of `CC1=C(C(N)=O)C(c2ccc(C(C)C)cc2)n2nc(SCc3ccccc3)nc2N1` (stereo not drawn), the survival was inactive: 82%.
To `CCn1c(=NC(=O)c2ccc(S(=O)(=O)N3CCCCC3)cc2)sc2cccc(OC)c21` belongs inactive: 68%.
In the case of `CCc1nn2c(-c3ccccc3OC)ccnc2c1-c1ccc(F)cc1`, the survival was active: -11%.
Then `CCOC(=O)c1cccc(NC(=O)CC(c2cc(OC)c(OC)c(OC)c2)N2Cc3ccccc3C2=O)c1` (stereo not drawn), with inactive: 68%.
For the compound `COc1ccc(CCNc2nc(-c3ccc(C)cc3)cc(C(F)F)n2)cc1OC`, the survival was inactive: 100%.
For the compound `Cc1cccc(NC(=O)c2oc3c(c2C)-c2[nH]ncc2CC3)c1C`, the survival was inactive: 88%.
Then `CCOC(=O)C1CCN(c2c(C(=O)c3ccc(OCC)cc3)cnc3ccc(OC)cc23)CC1`, with active: 0%.
To `Oc1c(C(c2ccccc2F)N2CCOCC2)sc2nc(-c3ccco3)nn12` (stereo not drawn) belongs inactive: 73%; to `COC(=O)c1ccc(NC(=O)CCc2c(C)nc3c(c(C)nn3-c3ccc(C)cc3)c2C)cc1`, inactive: 76%; to `CC(NC(=O)CSc1n[nH]c(-c2ccccc2Cl)n1)c1nc2ccccc2n1C` (stereo not drawn), inactive: 128%.
To `Cc1c(Cl)cccc1NC(=O)CC(c1cccs1)N1Cc2ccccc2C1=O` (stereo not drawn) belongs active: 0%; to `CCN(c1ccccc1)S(=O)(=O)c1ccc2[nH]cc(C(=O)NC3CCCCC3)c(=O)c2c1`, inactive: 105%; to `Cc1nc2c(C(=O)NCc3ccccc3Cl)c[nH]n2c(=O)c1Cc1cccc(Cl)c1`, active: -15%.
For the compound `COc1c(C)cc(S(=O)(=O)Nc2cccc(-c3ccc(N4CCOCC4)nn3)c2)c(C)c1C`, the survival was inactive: 81%.
Consider `CCOc1ccc(NC(=O)CN2CCN(Cc3ccccc3)S2(=O)=O)cc1`, for which the survival was inactive: 77%.
Take `Cc1cc(=O)[nH]c2nnc(SCc3ccc(Cl)c(Cl)c3)n12`: the survival is inactive: 113%.
With `COc1cccc(NC(=O)CSc2cc(=O)n(C)c3ccc(Cl)cc23)c1`, the survival was inactive: 80%.
